Laboratory results: PubChem BioAssay AID1347165 (National Center for Advancing Translational Sciences (NCATS), 2019)
About 5,700 (2.6%) of roughly 220,000 compounds were called active. Inconclusive results, whose numbers are uncertain, are shown with a selection of clear calls. The call rests on the fitted dose curve; in most records, active means well fitted inhibition curve with a large enough effect; inconclusive means small, poorly fitted or top-dose-only effect; inactive means no such curve, though single readings can be large or run the other way. Potencies beside an inconclusive call are fits to weak or partial responses and may not hold up.

What follows are compounds tested against Lysine-specific demethylase 5B (Homo sapiens) (UniProt Q9UGL1) (assay: Primary screen for KDM5B Histone Demethylases FDH-coupled qHTS). Details: FDH-coupled NADH fluorescence (FDH is formaldehyde dehydrogenase); activity change, negative = inhibition: at 57.7 µM (top of the series) unless noted.
Method in brief: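 qHTS format, multiple compound concentrations. Buffer 50 mM HEPES pH 7.5/0.01% Tween-20; 200 nM KDM5BΔAP final; 10 min compound preincubation; substrate-mix levels 12.5 µM peptide, 25 µM α-KG, 0.25 mM NAD⁺; 30 min RT; ΔRFU.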
Further: nearly all actives have a fitted effect of over 70% in size.
Potency means the concentration at half of the fitted maximal effect; tags describe the fitted curve by direction and shape.
Wherever activity change, negative = inhibition is given: 0% is about no effect.

UniProt Q9UGL1, sequence (Q9UGL1 whole entry, looked up): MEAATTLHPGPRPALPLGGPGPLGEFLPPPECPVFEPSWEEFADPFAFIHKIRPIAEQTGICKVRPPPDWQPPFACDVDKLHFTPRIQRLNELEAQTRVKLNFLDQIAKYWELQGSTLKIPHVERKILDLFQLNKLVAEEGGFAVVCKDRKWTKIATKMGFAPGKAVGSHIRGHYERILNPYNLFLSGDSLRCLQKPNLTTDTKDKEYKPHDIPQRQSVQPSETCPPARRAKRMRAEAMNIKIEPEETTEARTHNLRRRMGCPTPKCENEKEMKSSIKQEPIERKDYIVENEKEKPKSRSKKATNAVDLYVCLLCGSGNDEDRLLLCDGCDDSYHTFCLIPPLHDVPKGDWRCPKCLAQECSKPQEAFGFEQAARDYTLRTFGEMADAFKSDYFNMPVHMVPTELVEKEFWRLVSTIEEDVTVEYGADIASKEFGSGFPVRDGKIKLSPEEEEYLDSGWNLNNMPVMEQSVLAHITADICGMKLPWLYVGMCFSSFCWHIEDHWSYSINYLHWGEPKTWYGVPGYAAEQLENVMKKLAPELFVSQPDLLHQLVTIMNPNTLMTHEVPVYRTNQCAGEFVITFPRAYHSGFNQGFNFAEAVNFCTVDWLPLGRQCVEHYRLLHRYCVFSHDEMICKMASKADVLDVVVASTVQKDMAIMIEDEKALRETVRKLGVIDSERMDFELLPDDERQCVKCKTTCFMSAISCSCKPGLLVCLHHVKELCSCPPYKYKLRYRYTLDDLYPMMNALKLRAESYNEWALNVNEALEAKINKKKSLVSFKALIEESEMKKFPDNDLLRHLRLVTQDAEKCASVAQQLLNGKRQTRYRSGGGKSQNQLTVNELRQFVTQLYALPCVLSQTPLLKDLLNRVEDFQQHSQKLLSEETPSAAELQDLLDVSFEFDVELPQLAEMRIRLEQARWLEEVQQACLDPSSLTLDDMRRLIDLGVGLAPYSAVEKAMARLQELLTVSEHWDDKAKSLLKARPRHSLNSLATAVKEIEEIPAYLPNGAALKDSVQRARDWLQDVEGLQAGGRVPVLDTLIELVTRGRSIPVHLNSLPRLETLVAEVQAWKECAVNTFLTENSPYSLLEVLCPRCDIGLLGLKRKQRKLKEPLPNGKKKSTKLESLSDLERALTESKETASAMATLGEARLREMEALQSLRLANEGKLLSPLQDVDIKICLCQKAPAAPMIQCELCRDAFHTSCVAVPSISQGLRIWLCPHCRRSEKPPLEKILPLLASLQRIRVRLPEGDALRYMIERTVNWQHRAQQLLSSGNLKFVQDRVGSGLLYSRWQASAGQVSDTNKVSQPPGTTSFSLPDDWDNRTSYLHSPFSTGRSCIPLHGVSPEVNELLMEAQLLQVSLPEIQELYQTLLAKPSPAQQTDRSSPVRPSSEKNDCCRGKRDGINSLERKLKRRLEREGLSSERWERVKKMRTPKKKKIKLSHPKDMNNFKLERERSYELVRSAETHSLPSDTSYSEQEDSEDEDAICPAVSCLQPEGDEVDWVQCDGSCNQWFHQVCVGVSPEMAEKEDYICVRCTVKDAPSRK

| SMILES | Potency | activity change, negative = inhibition |
| --- | --- | --- |
| CCCC(C(=O)NC1CCCC1)N(CCN(CC)CC)C(=O)c1snc(C(N)=O)c1N (stereo unspecified) | inconclusive: 39.8 µM [inhibitor, single point] | – |
| O=C(NC[C@H]1O[C@@H](CC(=O)N2CCN(c3ccccn3)CC2)[C@H](O)[C@@H]1O)NC1CCCCC1 | active: 25.1 µM | – |
| O=C(CSC1CCCCC1)c1ccc(OC(F)F)cc1 | inconclusive: 39.8 µM [inhibitor, single point] | – |
| CCc1ccc(S(=O)(=O)c2nnn3c2nc(NCc2cccc(OC)c2)c2cc(Cl)ccc23)cc1 | inconclusive: 7.94 µM [inhibitor, partial curve, poor fit] | – |
| [O-]/[N+](=C\c1ccncc1)c1ccc(Cl)cc1 | inconclusive: 17.8 µM [inhibitor, partial curve, poor fit] | – |
| CC(C)c1ccc(CN2CCN(C(=O)c3cccc4ncccc34)CC2)cc1 | – | inactive: -3.87% |
| Brc1cccc(N=Cc2c3ccccc3cc3ccccc23)c1 | inconclusive: 1.78 µM [inhibitor, full curve, poor fit] | – |
| CCN(CC)C(=O)C1CCN(C(=O)Cn2ccc3ccc(Cl)cc32)CC1 | – | inactive: 8.71% |
| Cc1ccsc1CN1CCc2c(sc3ncnc(N(C)C)c23)C1 | inconclusive: 25.1 µM [inhibitor, partial curve, poor fit] | – |
| CN(C)c1ccc(CC(=O)N2CC[C@@](C)(O)[C@@H](O)C2)cc1 | – | inactive: -13.9% |
| COc1ccc(CN2CCC3(CC(C(C)C)=NO3)C2)cc1 (stereo unspecified) | inconclusive: 282 µM [inhibitor, partial curve] | – |
| C=CCN1CCN(C(=O)C2CCCN(C(=O)c3ccccc3)CCC(=O)NCC2)CC1 (stereo unspecified) | – | inactive: 12.5% |
| Cc1ccc2nc(-c3cccc(Cl)c3)c(Nc3ccc4c(c3)OCO4)n2c1 | inconclusive: 11.2 µM [inhibitor, partial curve, poor fit] | – |
| CCOC(=O)c1cc(N)cc(C(=O)OCC)c1 | inconclusive: 25.1 µM [inhibitor, partial curve, poor fit] | – |
| COC[C@H]1CCCN1[C@@H]1[C@H](O)[C@H](CO)O[C@@H]1CN(Cc1cccc(Cl)c1)Cc1cccc(Cl)c1 | inconclusive: 22.4 µM [inhibitor, single point] | – |
| Cc1c(CC(=O)NCc2ccc3c(c2)OCO3)c(=O)oc2cc(O)c(Cl)cc12 | – | inactive: -2160% |
| COc1ccc(CNC(=O)c2c(C)noc2-c2cccc(F)c2)cc1 | – | inactive: 4.94% |
| O=C(NC1C[C@H]2CC[C@@H](C1)N2C(=O)c1ccco1)c1ccncc1 (stereo partly specified) | inconclusive: 17.8 µM [inhibitor, partial curve] | – |
| O=C(N/N=C/c1c(O)ccc2ccccc12)Nc1ccccc1 | inconclusive: 39.8 µM [inhibitor, partial curve, poor fit] | – |
| O=C(CSc1ncnc2c1sc1cccc(F)c12)NCCN1CCCCCC1 | inconclusive: 22.4 µM [inhibitor, partial curve, poor fit] | – |
| COc1cccc(-c2nc(CS(=O)(=O)CC(=O)Nc3ccc(F)cc3C)c(C)o2)c1 | – | inactive: -1.11% |
| Cc1cc(OCc2nn[nH]n2)c2c(C)c(C)c(=O)oc2c1 | inconclusive: 22.4 µM [inhibitor, partial curve, poor fit] | – |
| Cc1c(CC(=O)NC(C)C)c2c(n1Cc1ccccc1F)CCCC2=O | inconclusive: 6.31 µM [inhibitor, partial curve, poor fit] | – |

| SMILES | Potency | activity change, negative = inhibition |
| --- | --- | --- |
| COc1ccc(-c2nc3c(c(=O)[nH]2)CCN(C(=O)COc2ccc(F)c(F)c2)C3)cc1 | active: 22.4 µM | – |
| CNC(=O)c1ccc(CSc2nc3cccnc3n2Cc2cccc(F)c2)cc1 | inconclusive: 35.5 µM [inhibitor, single point] | – |
| O=C1COc2ccc(OCc3cccnc3)nc2CN1CCOc1ccccc1 | – | inactive: -11% [at 86.2 µM] |
| O=c1cc(N2CCOCC2)oc2c(-c3ccccc3Oc3ccccc3)nccc12 | inconclusive: 35.5 µM [inhibitor, partial curve, poor fit] | – |
| Cc1[nH]nc2ncc(C=O)cc12 | – | inactive: -6.99% |
| Clc1ccccc1-n1nnnc1-c1ccncc1 | – | inactive: 16.5% |
| Cc1ccc(-c2noc(COc3ccc4c(C)cc(=O)oc4c3)n2)cc1 | inconclusive: 31.6 µM [inhibitor, partial curve, poor fit] | – |
| COC(=O)c1cn([C@H]2CO[C@H]3[C@@H]2OC[C@H]3OC(=O)Nc2ccc(C(C)(C)C)cc2)nn1 | inconclusive: 39.8 µM [inhibitor, partial curve, poor fit] | – |
| O=C(NCCc1cccnc1)C1CC2CCC1C2 (stereo unspecified) | – | inactive: 9.33% |
| O=C(NCCCCCCCN1CCCC1)c1ccco1 | – | inactive: -7.22% |
| COC[C@@H]1CN(C(=O)CCc2cccc(OC)c2)C[C@H]1c1nc(C)no1 | – | inactive: 32.9% |
| COC1CCC12CCN(C(=O)CCc1ccccc1)CC2 (stereo unspecified) | – | inactive: 28% |
| CC(=O)N1C[C@@H]2CCCN3CCC[C@@H]([C@H]23)[C@H]1CCCC(=O)N1CCN(c2ccccc2)CC1 | – | inactive: -20.2% |
| Cc1ccccc1Cn1c(N2CCC(C(=O)N3CCCC3)CC2)nc2ccccc21 | – | inactive: 9.11% |
| COc1ccc(NC(=O)c2cc(C)nc3ccccc23)cc1OC | – | inactive: 1.77% |
| COc1cc(NS(=O)(=O)c2cc3c(cc2C)n(C)c(=O)c(=O)n3C)cc(OC)c1 | – | inconclusive: -32% [inhibitor] |
| O=C1Nc2ccccc2CC12CN(CC1CCCC1)C2 | – | inactive: 0.134% [at 149 µM] |
| COc1ccc2[nH]c(C(=O)N(C)c3ccc(F)cc3F)cc2c1 | inconclusive: 39.8 µM [inhibitor, single point] | – |
| CCCCc1cc(=O)oc2cc(C)cc(OC(C)C(=O)NCc3ccccn3)c12 (stereo unspecified) | inconclusive: 1.78 µM [inhibitor, full curve, poor fit] | – |
| CN(Cc1ccccc1C(F)(F)F)CC1CC1 | – | inactive: 6.88% [at 86.2 µM] |
| Cc1nc2c(C(=O)NCCc3ccccc3)c[nH]n2c(=O)c1Cc1ccccc1F | inconclusive: 28.2 µM [inhibitor, partial curve, poor fit] | – |
| COc1ccc(C(=O)Nc2ccc3nc(N4CCCCC4)cc(C)c3c2)cc1OC | inconclusive: 31.6 µM [inhibitor, partial curve, poor fit] | – |
| COc1ccccc1-c1cc(-c2ccccc2OC)c2onc(C)c2n1 | inconclusive: 56.2 µM [inhibitor, single point] | – |
